PubChem BioAssay AID504333 (National Center for Advancing Translational Sciences (NCATS), 2011)
The whole screen tested about 360,000 compounds, of which about 16,000 (4.4%) were called active. Inconclusive results, whose numbers are uncertain, are shown with a selection of clear calls. The call rests on the fitted dose curve; in most records, active means well fitted inhibition curve with a large enough effect; inconclusive means small, poorly fitted or top-dose-only effect; inactive means no such curve, though single readings can be large or run the other way. Where the call is inconclusive, the potency comes from a doubtful curve fit.

The compounds below were run against Bromodomain adjacent to zinc finger domain protein 2B (Homo sapiens) (UniProt Q9UIF8) (assay: qHTS Assay for Inhibitors of BAZ2B). Conditions: AlphaScreen BAZ2B-H3K14Ac peptide displacement; activity change, negative = inhibition: at 114 µM (top of the series).
Chain of UniProt Q9UIF8 (Q9UIF8 whole entry, looked up, the tested form may be a part): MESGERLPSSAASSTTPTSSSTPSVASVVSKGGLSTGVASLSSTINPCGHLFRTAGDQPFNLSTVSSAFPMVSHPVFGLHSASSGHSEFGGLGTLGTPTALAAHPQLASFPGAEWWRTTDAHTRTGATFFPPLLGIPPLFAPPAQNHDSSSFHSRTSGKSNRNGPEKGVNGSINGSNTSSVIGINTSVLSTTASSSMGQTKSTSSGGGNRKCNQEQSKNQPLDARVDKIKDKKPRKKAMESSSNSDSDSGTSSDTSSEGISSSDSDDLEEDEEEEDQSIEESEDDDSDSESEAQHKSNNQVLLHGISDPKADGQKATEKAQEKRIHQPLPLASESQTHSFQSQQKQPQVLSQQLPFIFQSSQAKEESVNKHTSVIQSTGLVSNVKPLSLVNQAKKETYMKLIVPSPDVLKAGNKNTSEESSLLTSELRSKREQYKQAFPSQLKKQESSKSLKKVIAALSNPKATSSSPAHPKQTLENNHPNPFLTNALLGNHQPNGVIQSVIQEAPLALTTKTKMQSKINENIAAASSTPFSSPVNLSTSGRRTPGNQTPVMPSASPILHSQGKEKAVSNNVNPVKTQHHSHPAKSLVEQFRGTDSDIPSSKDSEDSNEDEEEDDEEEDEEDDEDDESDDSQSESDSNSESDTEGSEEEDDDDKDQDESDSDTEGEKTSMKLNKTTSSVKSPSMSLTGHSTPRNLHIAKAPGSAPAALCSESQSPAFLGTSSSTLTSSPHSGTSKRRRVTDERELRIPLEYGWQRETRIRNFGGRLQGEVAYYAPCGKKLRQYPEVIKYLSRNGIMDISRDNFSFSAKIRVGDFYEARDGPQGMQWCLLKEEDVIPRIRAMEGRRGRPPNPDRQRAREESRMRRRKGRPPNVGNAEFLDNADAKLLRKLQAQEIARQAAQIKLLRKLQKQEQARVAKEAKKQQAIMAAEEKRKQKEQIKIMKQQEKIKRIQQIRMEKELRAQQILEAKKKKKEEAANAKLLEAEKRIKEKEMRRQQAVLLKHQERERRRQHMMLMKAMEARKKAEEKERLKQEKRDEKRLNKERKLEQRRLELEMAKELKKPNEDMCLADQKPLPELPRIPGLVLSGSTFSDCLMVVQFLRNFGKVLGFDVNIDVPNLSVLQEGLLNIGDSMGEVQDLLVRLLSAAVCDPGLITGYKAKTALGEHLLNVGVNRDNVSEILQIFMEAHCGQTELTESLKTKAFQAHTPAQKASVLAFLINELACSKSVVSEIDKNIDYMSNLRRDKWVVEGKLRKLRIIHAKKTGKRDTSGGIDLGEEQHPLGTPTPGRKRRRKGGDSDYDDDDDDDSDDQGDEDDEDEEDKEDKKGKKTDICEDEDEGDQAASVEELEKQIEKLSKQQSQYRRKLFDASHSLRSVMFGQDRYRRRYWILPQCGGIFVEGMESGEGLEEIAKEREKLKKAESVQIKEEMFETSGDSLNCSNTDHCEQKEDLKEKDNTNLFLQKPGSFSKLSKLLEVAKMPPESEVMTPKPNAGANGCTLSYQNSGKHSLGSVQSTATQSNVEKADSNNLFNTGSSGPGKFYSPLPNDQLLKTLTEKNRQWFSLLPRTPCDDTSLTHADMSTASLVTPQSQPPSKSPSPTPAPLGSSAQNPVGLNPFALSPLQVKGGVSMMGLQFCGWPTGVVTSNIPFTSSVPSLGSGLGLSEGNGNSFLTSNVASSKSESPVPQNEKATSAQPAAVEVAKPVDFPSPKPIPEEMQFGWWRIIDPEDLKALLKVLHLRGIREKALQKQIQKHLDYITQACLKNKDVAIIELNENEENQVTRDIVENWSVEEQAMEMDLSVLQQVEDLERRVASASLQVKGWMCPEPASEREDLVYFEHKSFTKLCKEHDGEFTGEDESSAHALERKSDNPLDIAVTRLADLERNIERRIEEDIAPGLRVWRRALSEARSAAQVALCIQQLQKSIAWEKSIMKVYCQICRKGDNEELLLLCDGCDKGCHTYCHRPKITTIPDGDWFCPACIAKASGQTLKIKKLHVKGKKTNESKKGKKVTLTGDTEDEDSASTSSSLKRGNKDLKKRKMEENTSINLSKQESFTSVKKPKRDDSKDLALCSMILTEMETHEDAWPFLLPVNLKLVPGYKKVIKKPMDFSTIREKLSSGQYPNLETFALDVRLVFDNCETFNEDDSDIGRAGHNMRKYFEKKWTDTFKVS
Outline: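 Inhibition is scored as reduced AlphaScreen emission. The BAZ2B/b-H3(5-23)K14Ac complex (50 nM each) in PBS pH 7.4, 0.01% Tween-20 meets compound (up to 110 uM) for 30 min at RT before bead addition.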
Further: nearly all actives have a fitted effect of over 60% in size.
On the % scale 0 is the no-effect control and ±100 the full control effect; potency means the concentration at half of the fitted maximal effect; tags describe the fitted curve by direction and shape.

Compound | Potency | activity change, negative = inhibition
Cc1ccc(CNc2oc(-c3ccco3)nc2C#N)cc1 | inconclusive: 79.4 µM [inhibitor, partial curve] | –
Cc1cc(Cl)ccc1OCC(=O)NNC(=O)c1cccnc1 | – | inactive: -1.78%
CC(=O)c1c(C)[nH]c(C(=O)Nc2cccc(C)n2)c1C | inconclusive: 79.4 µM [inhibitor, single point] | –
CC(C(=O)NCc1ccccc1Cl)n1ccc2cc(S(=O)(=O)N3CCCCC3)ccc21 (centres undefined) | – | inactive: -19.6%
Cc1csc(SCC(=O)Nc2sc3c(c2C#N)CCC3)n1 | inconclusive: 79.4 µM [inhibitor, single point] | –
CN(CCn1ccnc1)Cc1cn(Cc2ccccc2)nc1-c1ccc2c(c1)OCO2 | inconclusive: 39.8 µM [inhibitor, partial curve] | –
CCCC(C)NCC(=O)Nc1ccccc1-c1ccccc1 (centres undefined) | inconclusive: 89.1 µM [inhibitor, single point] | –
Cc1ccc(-n2c(C)cc(C(=O)COc3c(CO)cc(F)cc3CO)c2C)cc1C | inconclusive: 50.1 µM [inhibitor, partial curve] | –
Cc1ccc(C2c3c(-c4cc(C)ccc4O)n[nH]c3C(=O)N2Cc2ccco2)cc1 (centres undefined) | active: 22.4 µM | –
Cc1cccc(Cn2c(=O)n(Cc3ccc(C(=O)NC4CCN(Cc5ccccc5)CC4)cc3)c(=O)c3ccccc32)c1 | – | inactive: -1.52%
c1ccc(Cc2noc(CN3CCN(Cc4ccc5c(c4)OCO5)CC3)n2)cc1 | inconclusive: 79.4 µM [inhibitor, single point] | –
OCc1ccccc1NC(=S)Nc1cccnc1 | – | inactive: -6.38%
Cc1occc1C(=O)N1CCN(C(c2ccccc2)c2ccccc2)CC1 | inconclusive: 79.4 µM [inhibitor, single point] | –
Cc1ccc(NC(=O)CN(C)C(=O)COC(=O)c2nc3nccc(C)n3n2)cc1 | – | inactive: 12.1%
CCOC(=O)c1cc(-c2ccc(C)cc2)n(CCC(=O)Nc2nc3c(C)cccc3s2)c1C | inconclusive: 22.4 µM [inhibitor, full curve] | –
O=S(=O)(Nc1nccs1)c1ccc(NCc2cc(Br)cc(Br)c2O)cc1 | inconclusive: 50.1 µM [inhibitor, partial curve] | –
CCOc1ccc(S(=O)(=O)N(C)c2ccc(OCC(=O)N3CCOCC3)cc2)cc1 | inconclusive: 12.6 µM [inhibitor, single point] | –
Cc1cc(OC(C)C(=O)NCCCn2ccnc2)c2c(C)c(C)c(=O)oc2c1 (centres undefined) | inconclusive: 89.1 µM [inhibitor, single point] | –
COc1ccc(CNC(=O)c2ccc(S(=O)(=O)N3CCOCC3)cc2)cc1 | – | inactive: -2.17%
